Sequences and labels used below:
B1: TEV protease; numbered along this chain (parent)
chain: MGESLFKGPRDYNPISSSICHLTNESDGHTTSLYGIGFGPFIITNKHLFRRNNGTLVVQSLHGVFKVKDTTTLQQHLVDGRDMIIIRMPKDFPPFPQKLKFREPQREERICLVTTNFQTKSMSSMVSDTSCTFPSGDGIFWKHWIQTKDGQCGSPLVSTRDGFIVGIHSASNFTNTNNYFTSVPKNFMELLTNQEAQQWVSGWRLNADSVLWGGHKVFMVKPEEPFQPVKEATQL

This experiment covers variants of B1. As to the kind of experiment: raw area under fraction-flipped curve 0-4 h after induction (AUC4h, not background-subtracted), DNA-recorder readout of cleavage of the substrate (dimensionless); higher = more cleavage of the substrate by the protease variant. The following applies: temperature: 34 °C; time window: 0-4 h after rhamnose induction.

This is one part of the list. The full chains were built here from the parent and the listed change. Inactive controls read about 0.05.
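Also: Bxb1 expression induced with 0.2% (w/v) L-rhamnose at OD600 near 0.5, cultures sampled hourly, flipped fraction per protease–substrate barcode pair counted by paired-end Illumina sequencing.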

Regarding MGESLFKGPRDYNPISSSICHLTNESDGHTTSLYGIGFGPFIITNKHLFRRNNGTLVVQSLHGVFKVKDTTTLQQHLVDGRDMIIIRMPKDFPPFPQKLKFREPQREERICLVTTNFQTKSMSSMVSDTSCTFPSGDGIFWKHWIQTKDGQCGSPLVSTRDGFIVGIHSASNFTNTNNYFTSVPKNFMELLTNQEAQQWVSGWRLNADSVLWGGHLVFMVKPEEPFQPVKEATQL [K216L], the “area with substrate ENLYDQS” value amounted to 0.0559, the “area with substrate ENLYKQS” value stood at 0.0589, the “area with substrate ENLYNQS” value came out at 0.0628 and the “area with substrate ENLYRQS” value is 0.0695. Also, the “area with substrate ENLYSQS” value turned out to be 0.103.

As for MGESLFKGPRDYNPISSSICHLTNESDGHTTSLYGIGFGPFIITNKHLFRRNNGTLVVQSLHGVFKVKDTTTLQQHLVDGRDMIIIRMPKDFPPFPQKLKFREPQREERICLVTTNFQTKSMSSMVSDTSCTFPSGDGIFWKHWIQTKDGQCGSPLVSTRDGFIVGIHSASNFTNTNNYFTSVPKNFMELLTNQEAQQWVSGWRLNADSVLWKGHKVFMVKPEEPFQPVKEATQL [G213K], the “area with substrate ENLYDQS” value is 0.054, the “area with substrate ENLYEQS” value was 0.0536, the “area with substrate ENLYGQS” value was 0.0558 and the “area with substrate ENLYHQS” value was determined as 0.061. Further, the “area with substrate ENLYIQS” value came to 0.0888, the “area with substrate ENLYKQS” value came to 0.0465, the “area with substrate ENLYMQS” value was determined as 0.041 and the “area with substrate ENLYNQS” value came to 0.0595. Moreover, the “area with substrate ENLYPQS” value stood at 0.0744, the “area with substrate ENLYQQS” value worked out at 0.0739, the “area with substrate ENLYRQS” value amounted to 0.06 and the “area with substrate ENLYSQS” value was 0.0748. Also, the “area with substrate ENLYTQS” value stood at 0.0547, the “area with substrate ENLYVQS” value is 0.0683, the “area with substrate ENLYWQS” value is 0.0562 and the “area with substrate ENLYYQS” value came out at 0.0657.

Turning to MGESLFKGPRDYNPISSSICHLTNESDGHTTSLYGIGFGPFIITNKHLFRRNNGTLVVQSLHGVFKVKDTTTLQQHLVDGRDMIIIRMPKDFPPFPQKLKFREPQREERICLVTTNFQTKSMSSMVSDTSCTFPSGDGIFWKHWIQTKDGQCGSPLVSTRDGFIVGIHSASNFTNTNNYFTSVPKNFMELLTNQEAQQWVSGWRLNADSVLWSGHKVFMVKPEEPFQPVKEATQL [G213S], the “area with substrate ENLYDQS” value is 0.0804, the “area with substrate ENLYEQS” value was determined as 0.0625, the “area with substrate ENLYGQS” value came out at 0.0685 and the “area with substrate ENLYKQS” value is 0.0747. Also, the “area with substrate ENLYLQS” value is 0.0671, the “area with substrate ENLYMQS” value is 0.0629, the “area with substrate ENLYNQS” value worked out at 0.0601 and the “area with substrate ENLYQQS” value came to 0.0535. Besides, the “area with substrate ENLYRQS” value is 0.0663, the “area with substrate ENLYSQS” value was determined as 0.0638, the “area with substrate ENLYTQS” value was found to be 0.0584 and the “area with substrate ENLYWQS” value was found to be 0.0659.

On to MGESLFKGPRDYNPISSSICHLTNESDGHTTSLYGIGFGPFIITNKHLFRRNNGTLVVQSLHGVFKVKDTTTLQQHLVDGRDMIIIRMPKDFPPFPQKLKFREPQREERICLVTTNFQTKSMSSMVSDTSCTFPSGDGIFWKHWIQTKDGQCGSPLVSTRDGFIVGIHSASNFTNTNNYFTSVPKNFMELLTNQEAQQWVSGWRLNADSVLMGGHKVFMVKPEEPFQPVKEATQL [W212M], for which the “area with substrate ENLYDQS” value was found to be 0.0739, the “area with substrate ENLYEQS” value came out at 0.0679, the “area with substrate ENLYGQS” value stood at 0.0757 and the “area with substrate ENLYHQS” value amounted to 0.0759. Further, the “area with substrate ENLYIQS” value was found to be 0.103, the “area with substrate ENLYLQS” value stood at 0.0858, the “area with substrate ENLYMQS” value was 0.0939 and the “area with substrate ENLYNQS” value worked out at 0.0775. Moreover, the “area with substrate ENLYRQS” value stood at 0.0719, the “area with substrate ENLYWQS” value is 0.122 and the “area with substrate ENLYYQS” value came to 0.096.

As for MGESLFKGPRDYNPISSSICHLTNESDGHTTSLYGIGFGPFIITNKHLFRRNNGTLVVQSLHGVFKVKDTTTLQQHLVDGRDMIIIRMPKDFPPFPQKLKFREPQREERICLVTTNFQTKSMSSMVSDTSCTFPSGDGIFWKHWIQTKDGQCGSPLVSTRDGFIVGIHSASNFTNTNNYFTSVPKNFMELLTNQEAQQWVSGWRLNADSVLWGGHKVFMVKPEERFQPVKEATQL [P225R], the “area with substrate ENLYDQS” value was found to be 0.0682, the “area with substrate ENLYEQS” value worked out at 0.0665, the “area with substrate ENLYGQS” value amounted to 0.0603 and the “area with substrate ENLYHQS” value came to 0.0755. Further, the “area with substrate ENLYIQS” value is 0.113, the “area with substrate ENLYKQS” value came out at 0.0376, the “area with substrate ENLYMQS” value was determined as 0.084 and the “area with substrate ENLYNQS” value was 0.0576. Besides, the “area with substrate ENLYPQS” value was 0.073, the “area with substrate ENLYQQS” value is 0.0602, the “area with substrate ENLYSQS” value was 0.0768 and the “area with substrate ENLYTQS” value was 0.0753. Further, the “area with substrate ENLYVQS” value came to 0.0782, the “area with substrate ENLYWQS” value turned out to be 0.073 and the “area with substrate ENLYYQS” value is 0.0672.

In the case of MGESLFKGPRDYNPISSSICHLTNEVDGHTTSLYGIGFGPFIITNKHLFRRNNGTLVVQSLHGVFKVKDTTTLQQHLVDGRDMIIIRMPKDFPPFPQKLKFREPQREERICLVTTNFQTKSMSSMVSDTSCTFPSGDGIFWKHWIQTKDGQCGSPLVSTRDGFIVGIHSASNFTNTNNYFTSVPKNFMELLTNQEAQQWVSGWRLNADSVLWGGHKVFMVKPEEPFQPVKEATQL [S26V], the “area with substrate ENLYEQS” value amounted to 0.0578, the “area with substrate ENLYGQS” value was found to be 0.0513, the “area with substrate ENLYHQS” value stood at 0.065 and the “area with substrate ENLYKQS” value stood at 0.0696. The “area with substrate ENLYMQS” value turned out to be 0.0673, the “area with substrate ENLYNQS” value is 0.0563, the “area with substrate ENLYPQS” value is 0.0745 and the “area with substrate ENLYRQS” value is 0.0602. For the same variant, the “area with substrate ENLYSQS” value came out at 0.0731, the “area with substrate ENLYTQS” value was determined as 0.0761, the “area with substrate ENLYWQS” value was 0.0482 and the “area with substrate ENLYYQS” value came to 0.0608.

For the variant MGESLFKGPRDYNPISSSICHLTNESDGHTTSLYGIGFGPFIITNKHLFRRNNGTLVVQSLHGVFKVKDTTTLQQHLVDGRDMIIIRMPKDFPPFPQKLKFREPQREERICLVTTNFQTKSMSSMVSDTSCTFPSGDGIFWKHWIQTKDGQCGSPLVSTRDGFIVGIHSASNFTNTNNYFTSVPKNFMELLTNQEAQQWVSGWRLNADSVLWGGHKVFMVKPEEPFQPVKEASQL [T233S], the “area with substrate ENLYDQS” value was determined as 0.0549, the “area with substrate ENLYEQS” value was found to be 0.0529, the “area with substrate ENLYGQS” value is 0.0665 and the “area with substrate ENLYHQS” value amounted to 0.0785. Moreover, the “area with substrate ENLYIQS” value came to 0.152, the “area with substrate ENLYKQS” value came to 0.0406, the “area with substrate ENLYLQS” value came out at 0.0607 and the “area with substrate ENLYMQS” value was 0.0952. In addition, the “area with substrate ENLYNQS” value came out at 0.0597, the “area with substrate ENLYPQS” value stood at 0.0777, the “area with substrate ENLYQQS” value turned out to be 0.0636 and the “area with substrate ENLYRQS” value was determined as 0.0743. Moreover, the “area with substrate ENLYSQS” value came out at 0.0779, the “area with substrate ENLYTQS” value was 0.0822, the “area with substrate ENLYWQS” value amounted to 0.0846 and the “area with substrate ENLYYQS” value was 0.0737.

As for MGESLFKGPRDYNPISSSICHLTNESDGHTTSLYGIGFGPFDITNKHLFRRNNGTLVVQSLHGVFKVKDTTTLQQHLVDGRDMIIIRMPKDFPPFPQKLKFREPQREERICLVTTNFQTKSMSSMVSDTSCTFPSGDGIFWKHWIQTKDGQCGSPLVSTRDGFIVGIHSASNFTNTNNYFTSVPKNFMELLTNQEAQQWVSGWRLNADSVLWGGHKVFMVKPEEPFQPVKEATQL [I42D], the “area with substrate ENLYEQS” value worked out at 0.0425, the “area with substrate ENLYGQS” value amounted to 0.0407, the “area with substrate ENLYHQS” value was found to be 0.0451 and the “area with substrate ENLYMQS” value stood at 0.0663. Further, the “area with substrate ENLYNQS” value was 0.0522, the “area with substrate ENLYPQS” value is 0.0513, the “area with substrate ENLYQQS” value was 0.0477 and the “area with substrate ENLYRQS” value came to 0.0731. The “area with substrate ENLYWQS” value amounted to 0.056 and the “area with substrate ENLYYQS” value is 0.0204.

As to MGESLFKGPRDYNPISSSICHLTNESDGHTTSLYGIGFGPFIITNKHLFRRNNGTLVVQSLHGVFKVKDTTTLQQHLVDGRDMIIIRMPKDFPPFPQKLKFREPQREERICLVTTNFQTKSMSSMVSDTSCTFPSGDGIFWKHWIQTKDGQCGSPLVSTRDGFIVGIHSASNFTNTNNYFTSVPKNFMELLTNQEAQQWVSGWRLNADSVLWGGHKVFMVKPEEPFQPVKGATQL [E231G], the “area with substrate ENLYDQS” value came out at 0.0584, the “area with substrate ENLYEQS” value is 0.0727, the “area with substrate ENLYGQS” value was 0.0633 and the “area with substrate ENLYHQS” value was 0.0726. In addition, the “area with substrate ENLYIQS” value was 0.137, the “area with substrate ENLYKQS” value amounted to 0.0631, the “area with substrate ENLYMQS” value came out at 0.0767 and the “area with substrate ENLYNQS” value came out at 0.0558. Also, the “area with substrate ENLYPQS” value worked out at 0.0905, the “area with substrate ENLYQQS” value amounted to 0.114, the “area with substrate ENLYSQS” value is 0.0609 and the “area with substrate ENLYVQS” value is 0.126. Moreover, the “area with substrate ENLYWQS” value was 0.0909 and the “area with substrate ENLYYQS” value came out at 0.067.

Values taken from the supplement of paper PMC12217912.
